Experimental data as given in patent US6458929 (LICENTIA, dated 2002).

Biological target: T1, myotilin (full length, 498 residues) (human, UniProt Q9UBF9 1-498)
T1 construct: In the yeast two-hybrid assay, full-length myotilin was expressed as a bait (EG202) or prey (JG4-5) fusion protein; In Western blots and staining it was the endogenous muscle protein; also called full-length myotilin
T1 sequence: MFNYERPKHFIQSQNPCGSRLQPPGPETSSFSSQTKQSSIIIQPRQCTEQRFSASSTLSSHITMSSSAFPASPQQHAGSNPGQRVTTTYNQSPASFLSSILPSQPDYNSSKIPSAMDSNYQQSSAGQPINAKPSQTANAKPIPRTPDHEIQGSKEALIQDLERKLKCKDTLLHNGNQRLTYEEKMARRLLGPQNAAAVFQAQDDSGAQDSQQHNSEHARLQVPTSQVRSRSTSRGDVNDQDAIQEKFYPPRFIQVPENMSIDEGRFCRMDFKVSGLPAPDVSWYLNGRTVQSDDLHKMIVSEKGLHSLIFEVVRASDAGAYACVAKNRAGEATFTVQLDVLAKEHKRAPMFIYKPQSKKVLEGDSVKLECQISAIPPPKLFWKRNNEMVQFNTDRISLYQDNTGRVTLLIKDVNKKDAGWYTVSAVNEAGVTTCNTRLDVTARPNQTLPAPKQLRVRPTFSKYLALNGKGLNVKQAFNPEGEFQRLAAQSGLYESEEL
Assay: affinity precipitation of 35S-labelled in vitro translated myotilin with GST on glutathione-Agarose
Text: FIGS. 8A to 8E. Homotypic interaction of myotilin and association with α-actinin. (A) Domain structure of α-actinin and myotilin and the constructs used in yeast two-hybrid and in vitro binding assays. ABD=actin-binding domain, R=spectrin-like repeat, EF=EF-hand region. The grey box in myotilin indicates the serine-rich region and the loops indicate Ig-like domains. (B) A photomicrograph of the yeast two-hybrid interactions. On the left are the expressed bait fusion proteins and on the top are the prey fusion proteins. EG202=empty bait vector and JG4-5=prey vector. Color reaction is an indicator of an interaction. (C) Quantitation of β-galactoside values. The bait and prey fusion proteins are as in B. The β-galactosidase values are categorized as follows: −=<20; +=21–150; ++=151–300; +++=301–450. […] The NH_2-terminal and COOH-terminal parts of α-actinin were expressed as GST-fusion proteins, purified and bound to glutathione-Agarose beads. ^35S-labeled in vitro translated myotilin was allowed to bind GST-α-actinin fusion protein-containing beads. […]
For the in vitro binding assay, GST-α-actinin fusion proteins, ABD/R1/R2, R3/R4/EF [25] or GST alone were produced in E. coli and purified with glutathione-Agarose beads (Pharmacia). […] After washes with the same buffer, bound material was eluted by boiling in Laemmli buffer, subjected to SDS-PAGE and detected by autoradiography.

B1: GST alone (other)
chain: not shown
notes: Control protein on glutathione-Agarose beads; also called GST control
B1: no binding.
